Publication PMC9911399, “Two distinct binding modes provide the RNA-binding protein RbFox with extraordinary sequence specificity”
Numbering of substitutions follows the chain as printed; changes in the protein carry UniProt numbers. The list shows a part of the results.

T1: RBFOX1 RRM RbFoxmut (Fox-RRM*) (Homo sapiens, UniProt Q9NWB1 109-208, R118D;E147R;N151S;E152T)
T1 sequence: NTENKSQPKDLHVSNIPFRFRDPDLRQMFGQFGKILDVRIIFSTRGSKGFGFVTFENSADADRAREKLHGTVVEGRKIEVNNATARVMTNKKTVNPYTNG

B1: GGGUAUC (DNA:RNA)
RNA: GGGAGACCGGAAUUCAGAUUGUCCGGGUAUCUUAAAUCCCGUCGUAGCCACCA
DNA 1: CAATCTGAATTCCGGTCTCCC
DNA 2: TGGTGGCTACGACGGGATT
B2: AUAACAA (DNA:RNA)
RNA: GGGAGACCGGAAUUCAGAUUGUCCAUAACAAUUAAAUCCCGUCGUAGCCACCA
DNA 1: CAATCTGAATTCCGGTCTCCC
DNA 2: TGGTGGCTACGACGGGATT
B3: AAAUAAU (DNA:RNA)
RNA: B2 RNA with U26A, A28U, C29A, A31U
DNA 1: CAATCTGAATTCCGGTCTCCC
DNA 2: TGGTGGCTACGACGGGATT
B4: UCGCGAA (DNA:RNA)
RNA: B2 RNA with A25U, U26C, A27G, A28C, C29G
DNA 1: CAATCTGAATTCCGGTCTCCC
DNA 2: TGGTGGCTACGACGGGATT
B5: UUGGAGU (DNA:RNA)
RNA: B1 RNA with G25U, G26U, U28G, U30G, C31U
DNA 1: CAATCTGAATTCCGGTCTCCC
DNA 2: TGGTGGCTACGACGGGATT
B6: AAACUUG (DNA:RNA)
RNA: B2 RNA with U26A, A28C, C29U, A30U, A31G
DNA 1: CAATCTGAATTCCGGTCTCCC
DNA 2: TGGTGGCTACGACGGGATT
B7: CUUUUUU (DNA:RNA)
RNA: B1 RNA with G25C, G26U, G27U, A29U, C31U
DNA 1: CAATCTGAATTCCGGTCTCCC
DNA 2: TGGTGGCTACGACGGGATT
B8: AUCAUGA (DNA:RNA)
RNA: B2 RNA with A27C, C29U, A30G
DNA 1: CAATCTGAATTCCGGTCTCCC
DNA 2: TGGTGGCTACGACGGGATT
B9: UGUGGGA (DNA:RNA)
RNA: B2 RNA with A25U, U26G, A27U, A28G, C29G, A30G
DNA 1: CAATCTGAATTCCGGTCTCCC
DNA 2: TGGTGGCTACGACGGGATT

Each binder was assayed against T1, RBFOX1 RRM RbFoxmut (Fox-RRM*) (assay: EMSA; HiTS-Eq, 1 nM pool, 10 min; buffer printed only for the single-RNA assays: 10 mM Tris pH 7.5, 150 mM NaCl, 3.4 mM EDTA, 0.001% NP-40, 30 C). Settings: tags: His6 N-terminal (pET28a); label: 5' 32P.
In short: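 Purified RbFox RRM (wild type or mutant) was equilibrated for 10 min in 50 µL with 1 nM of a 5′-radiolabelled pool of RNA with 7 randomized nucleotides, its flanks annealed to DNA oligonucleotides, across increasing protein concentrations. Free RNA was separated by 8% native PAGE, excised, reverse-transcribed, PCR-barcoded and sequenced on an Illumina HiSeq 2500. Relative association constants came from read-count changes of each variant against the control reaction, normalised to the cognate motif.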

| Binder | binding signal |
| --- | --- |
| B1 | 0.409 KA relative to UGCAUGU |
| B2 | 0.0696 KA relative to UGCAUGU |
| B3 | 0.108 KA relative to UGCAUGU |
| B4 | 0.105 KA relative to UGCAUGU |
| B5 | 0.144 KA relative to UGCAUGU |
| B6 | 0.0923 KA relative to UGCAUGU |
| B7 | 0.0683 KA relative to UGCAUGU |
| B8 | 0.127 KA relative to UGCAUGU |
| B9 | 0.0829 KA relative to UGCAUGU |
